{
  "source": "the supplement of paper PMC8728848",
  "test_in_all_cases": "glycan array binding signal (z-score within array); higher = stronger binding",
  "settings_in_all_cases": "glycan notation: IUPAC condensed, linker removed",
  "key": {"[1]": {"molecular_target": "Neu5Ac(a2-6)Gal(b1-4)GlcNAc(b1-2)Man(a1-3)[Man(a1-6)]Man(b1-4)GlcNAc(b1-4)GlcNAc", "outline": "(§1)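 The binding signal is a Z-score computed within each array. Data were drawn from 3228 arrays in the Consortium for Functional Glycomics database, restricted to those with a known protein sequence. Scores were averaged over arrays of the same protein sequence at different concentrations or buffers, and over linkers, and negative values can be taken as non-binding.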"}, "[2]": {"molecular_target": "Neu5Ac(a2-6)Gal(b1-4)GlcNAc(b1-2)Man(a1-3)[Neu5Ac(a2-3)Gal(b1-4)GlcNAc(b1-2)Man(a1-6)]Man(b1-4)GlcNAc(b1-4)GlcNAc", "outline": "as §1"}, "[3]": {"molecular_target": "Neu5Ac(a2-6)Gal(b1-4)GlcNAc(b1-2)Man(a1-3)[Neu5Ac(a2-6)Gal(b1-4)GlcNAc(b1-2)Man(a1-6)]Man(b1-4)GlcNAc(b1-4)GlcNAc", "outline": "as §1"}, "[4]": {"molecular_target": "Neu5Ac(a2-6)Gal(b1-4)GlcNAc(b1-2)Man(a1-3)[Neu5Ac(a2-6)Gal(b1-4)GlcNAc(b1-2)Man(a1-6)]Man(b1-4)GlcNAc(b1-4)[Fuc(a1-6)]GlcNAc", "outline": "as §1"}, "[5]": {"molecular_target": "Neu5Ac(a2-6)Gal(b1-4)GlcNAc(b1-2)Man(a1-6)Man(b1-4)GlcNAc(b1-4)GlcNAc", "outline": "as §1"}, "[6]": {"molecular_target": "Neu5Ac(a2-6)Gal(b1-4)GlcNAc(b1-2)Man(a1-6)[Gal(b1-4)GlcNAc(b1-2)Man(a1-3)]Man(b1-4)GlcNAc(b1-4)GlcNAc", "outline": "as §1"}, "[7]": {"molecular_target": "Neu5Ac(a2-6)Gal(b1-4)GlcNAc(b1-2)Man(a1-6)[GlcNAc(b1-2)Man(a1-3)]Man(b1-4)GlcNAc(b1-4)GlcNAc", "outline": "as §1"}, "[8]": {"molecular_target": "Neu5Ac(a2-6)Gal(b1-4)GlcNAc(b1-2)Man(a1-6)[Man(a1-3)]Man(b1-4)GlcNAc(b1-4)GlcNAc", "outline": "as §1"}, "[9]": {"molecular_target": "Neu5Ac(a2-6)Gal(b1-4)GlcNAc(b1-2)[Neu5Ac(a2-6)Gal(b1-4)GlcNAc(b1-4)]Man(a1-3)[GlcNAc(b1-4)][Neu5Ac(a2-6)Gal(b1-4)GlcNAc(b1-2)[Neu5Ac(a2-6)Gal(b1-4)GlcNAc(b1-6)]Man(a1-6)]Man(b1-4)GlcNAc(b1-4)GlcNAc", "outline": "as §1"}, "[10]": {"molecular_target": "Neu5Ac(a2-6)Gal(b1-4)GlcNAc(b1-2)[Neu5Ac(a2-6)Gal(b1-4)GlcNAc(b1-4)]Man(a1-3)[GlcNAc(b1-4)][Neu5Ac(a2-6)Gal(b1-4)GlcNAc(b1-4)Man(a1-6)]Man(b1-4)GlcNAc(b1-4)GlcNAc", "outline": "as §1"}, "[11]": {"molecular_target": "Neu5Ac(a2-6)Gal(b1-4)GlcNAc(b1-2)[Neu5Ac(a2-6)Gal(b1-4)GlcNAc(b1-6)]Man(a1-6)[Neu5Ac(a2-6)Gal(b1-4)GlcNAc(b1-2)Man(a1-3)][GlcNAc(b1-4)]Man(b1-4)GlcNAc(b1-4)GlcNAc", "outline": "as §1"}, "[12]": {"molecular_target": "Neu5Ac(a2-6)Gal(b1-4)GlcNAc(b1-3)Gal(b1-3)GlcNAc", "outline": "as §1"}, "[13]": {"molecular_target": "Neu5Ac(a2-6)Gal(b1-4)GlcNAc(b1-3)Gal(b1-4)GlcNAc", "outline": "as §1"}, "[14]": {"molecular_target": "Neu5Ac(a2-6)Gal(b1-4)GlcNAc(b1-3)Gal(b1-4)GlcNAc(b1-2)Man(a1-3)[Neu5Ac(a2-6)Gal(b1-4)GlcNAc(b1-3)Gal(b1-4)GlcNAc(b1-2)Man(a1-6)]GalNAc", "outline": "as §1"}, "[15]": {"molecular_target": "Neu5Ac(a2-6)Gal(b1-4)GlcNAc(b1-3)Gal(b1-4)GlcNAc(b1-3)Gal(b1-4)GlcNAc", "outline": "as §1"}, "[16]": {"molecular_target": "Neu5Ac(a2-6)Gal(b1-4)GlcNAc(b1-3)Gal(b1-4)GlcNAc(b1-3)Gal(b1-4)GlcNAc(b1-2)Man(a1-3)[Neu5Ac(a2-6)Gal(b1-4)GlcNAc(b1-3)Gal(b1-4)GlcNAc(b1-3)Gal(b1-4)GlcNAc(b1-2)Man(a1-6)]GalNAc", "outline": "as §1"}, "[17]": {"molecular_target": "Neu5Ac(a2-6)Gal(b1-4)GlcNAc(b1-3)Gal(b1-4)GlcNAc(b1-3)GalNAc", "outline": "as §1"}, "[18]": {"molecular_target": "Neu5Ac(a2-6)Gal(b1-4)GlcNAc(b1-3)Gal(b1-4)GlcNAc(b1-3)[Neu5Ac(a2-6)Gal(b1-4)GlcNAc(b1-3)Gal(b1-4)GlcNAc(b1-6)]GalNAc", "outline": "as §1"}, "[19]": {"molecular_target": "Neu5Ac(a2-6)Gal(b1-4)GlcNAc(b1-3)Gal(b1-4)GlcNAc(b1-6)[Gal(b1-3)]GalNAc", "outline": "as §1"}, "[20]": {"molecular_target": "Neu5Ac(a2-6)Gal(b1-4)GlcNAc(b1-3)Gal(b1-4)[Fuc(a1-3)]GlcNAc(b1-3)Gal(b1-4)[Fuc(a1-3)]GlcNAc", "outline": "as §1"}, "[21]": {"molecular_target": "Neu5Ac(a2-6)Gal(b1-4)GlcNAc(b1-3)GalNAc", "outline": "as §1"}, "[22]": {"molecular_target": "Neu5Ac(a2-6)Gal(b1-4)GlcNAc(b1-3)[Neu5Ac(a2-6)Gal(b1-4)GlcNAc(b1-6)]GalNAc", "outline": "as §1"}, "[23]": {"molecular_target": "Neu5Ac(a2-6)Gal(b1-4)GlcNAc(b1-6)GalNAc", "outline": "as §1"}, "[24]": {"molecular_target": "Neu5Ac(a2-6)Gal(b1-4)GlcNAc(b1-6)[Gal(b1-3)GlcNAc(b1-3)]Gal(b1-4)Glc", "outline": "as §1"}, "[25]": {"molecular_target": "Neu5Ac(a2-6)Gal(b1-4)GlcNAc(b1-6)[Gal(b1-3)]GalNAc", "outline": "as §1"}, "[26]": {"molecular_target": "Neu5Ac(a2-6)Gal(b1-4)GlcNAc6S", "outline": "as §1"}, "Neu5Ac(a2-6)GalNAc": {"molecular_target": "Neu5Ac(a2-6)GalNAc", "outline": "as §1"}, "[27]": {"molecular_target": "Neu5Ac(a2-6)GalNAc(b1-4)GlcNAc", "outline": "as §1"}, "[28]": {"molecular_target": "Neu5Ac(a2-6)GalNAc(b1-4)GlcNAc6S", "outline": "as §1"}, "[29]": {"molecular_target": "Neu5Ac(a2-6)GlcNAc(b1-4)GlcNAc", "outline": "as §1"}, "[30]": {"molecular_target": "Neu5Ac(a2-6)GlcNAc(b1-4)GlcNAc(b1-4)GlcNAc", "outline": "as §1"}},
  "note": "The other results are listed elsewhere or left out.",
  "data": [
    {"binder": "Epa1to9 (Candida glabrata) (protein) MGSSHHHHHHSSGLVPRGSHMTSSNDISLASKDPTTFPLGCSPDITTPKKGLSMELYSYDFRKKGSYPCWDAAYLDPNYPRTGYKSHRLLAKVDGVTGNINFYYHATKGCTPQLGHLPASYNYPKPLTMTNFTMLLYGYFRPKVTGFHTFTISADDLLFVNFGAGNAFDCCRRDSSADHFGNYQAYAIWGSKTAKDELTVHLDAGVYYPIRLFYNNRDYHGALSFTFKTESNENTVSDFSEYFFSLDDTEEGCPGLISYD", "values": [
      {"measurement": "glycan array binding signal (z-score)", "setting": "[1]", "value": -0.321},
      {"measurement": "glycan array binding signal (z-score)", "setting": "[2]", "value": -0.328},
      {"measurement": "glycan array binding signal (z-score)", "setting": "[3]", "value": -0.257},
      {"measurement": "glycan array binding signal (z-score)", "setting": "[4]", "value": -0.335},
      {"measurement": "glycan array binding signal (z-score)", "setting": "[5]", "value": -0.319},
      {"measurement": "glycan array binding signal (z-score)", "setting": "[6]", "value": -0.145},
      {"measurement": "glycan array binding signal (z-score)", "setting": "[7]", "value": -0.34},
      {"measurement": "glycan array binding signal (z-score)", "setting": "[8]", "value": -0.342},
      {"measurement": "glycan array binding signal (z-score)", "setting": "[9]", "value": -0.296},
      {"measurement": "glycan array binding signal (z-score)", "setting": "[10]", "value": -0.321},
      {"measurement": "glycan array binding signal (z-score)", "setting": "[11]", "value": -0.317},
      {"measurement": "glycan array binding signal (z-score)", "setting": "[12]", "value": -0.295},
      {"measurement": "glycan array binding signal (z-score)", "setting": "[13]", "value": -0.313},
      {"measurement": "glycan array binding signal (z-score)", "setting": "[14]", "value": -0.268},
      {"measurement": "glycan array binding signal (z-score)", "setting": "[15]", "value": -0.466},
      {"measurement": "glycan array binding signal (z-score)", "setting": "[16]", "value": -0.309},
      {"measurement": "glycan array binding signal (z-score)", "setting": "[17]", "value": -0.325},
      {"measurement": "glycan array binding signal (z-score)", "setting": "[18]", "value": -0.317},
      {"measurement": "glycan array binding signal (z-score)", "setting": "[19]", "value": 0.291},
      {"measurement": "glycan array binding signal (z-score)", "setting": "[20]", "value": -0.298},
      {"measurement": "glycan array binding signal (z-score)", "setting": "[21]", "value": -0.289},
      {"measurement": "glycan array binding signal (z-score)", "setting": "[22]", "value": -0.283},
      {"measurement": "glycan array binding signal (z-score)", "setting": "[23]", "value": -0.336},
      {"measurement": "glycan array binding signal (z-score)", "setting": "[24]", "value": -0.192},
      {"measurement": "glycan array binding signal (z-score)", "setting": "[25]", "value": 0.341},
      {"measurement": "glycan array binding signal (z-score)", "setting": "[26]", "value": -0.328},
      {"measurement": "glycan array binding signal (z-score)", "setting": "Neu5Ac(a2-6)GalNAc", "value": -0.343},
      {"measurement": "glycan array binding signal (z-score)", "setting": "[27]", "value": -0.356},
      {"measurement": "glycan array binding signal (z-score)", "setting": "[28]", "value": -0.352},
      {"measurement": "glycan array binding signal (z-score)", "setting": "[29]", "value": -0.35},
      {"measurement": "glycan array binding signal (z-score)", "setting": "[30]", "value": -0.39}
    ]}
  ]
}
